# According to PMC4336329 (PLoS ONE, 2015):
# In all, about 310,000 compounds went through this assay and about 14,000 (4.5%) showed an effect of 50% or more. The effect is printed as a negative number. The list shows a part of the results.
# Target: human ether-à-go-go-related gene (hERG) potassium channel (human, UniProt Q12809)
# Experiment: primary screen, population patch clamp on CHO cells stably expressing hERG
# 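Also: peak tail current of the secondary pulse compared with the same well before compound.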
# human ether-à-go-go-related gene (hERG) potassium channel, sequence (Q12809 whole entry, looked up): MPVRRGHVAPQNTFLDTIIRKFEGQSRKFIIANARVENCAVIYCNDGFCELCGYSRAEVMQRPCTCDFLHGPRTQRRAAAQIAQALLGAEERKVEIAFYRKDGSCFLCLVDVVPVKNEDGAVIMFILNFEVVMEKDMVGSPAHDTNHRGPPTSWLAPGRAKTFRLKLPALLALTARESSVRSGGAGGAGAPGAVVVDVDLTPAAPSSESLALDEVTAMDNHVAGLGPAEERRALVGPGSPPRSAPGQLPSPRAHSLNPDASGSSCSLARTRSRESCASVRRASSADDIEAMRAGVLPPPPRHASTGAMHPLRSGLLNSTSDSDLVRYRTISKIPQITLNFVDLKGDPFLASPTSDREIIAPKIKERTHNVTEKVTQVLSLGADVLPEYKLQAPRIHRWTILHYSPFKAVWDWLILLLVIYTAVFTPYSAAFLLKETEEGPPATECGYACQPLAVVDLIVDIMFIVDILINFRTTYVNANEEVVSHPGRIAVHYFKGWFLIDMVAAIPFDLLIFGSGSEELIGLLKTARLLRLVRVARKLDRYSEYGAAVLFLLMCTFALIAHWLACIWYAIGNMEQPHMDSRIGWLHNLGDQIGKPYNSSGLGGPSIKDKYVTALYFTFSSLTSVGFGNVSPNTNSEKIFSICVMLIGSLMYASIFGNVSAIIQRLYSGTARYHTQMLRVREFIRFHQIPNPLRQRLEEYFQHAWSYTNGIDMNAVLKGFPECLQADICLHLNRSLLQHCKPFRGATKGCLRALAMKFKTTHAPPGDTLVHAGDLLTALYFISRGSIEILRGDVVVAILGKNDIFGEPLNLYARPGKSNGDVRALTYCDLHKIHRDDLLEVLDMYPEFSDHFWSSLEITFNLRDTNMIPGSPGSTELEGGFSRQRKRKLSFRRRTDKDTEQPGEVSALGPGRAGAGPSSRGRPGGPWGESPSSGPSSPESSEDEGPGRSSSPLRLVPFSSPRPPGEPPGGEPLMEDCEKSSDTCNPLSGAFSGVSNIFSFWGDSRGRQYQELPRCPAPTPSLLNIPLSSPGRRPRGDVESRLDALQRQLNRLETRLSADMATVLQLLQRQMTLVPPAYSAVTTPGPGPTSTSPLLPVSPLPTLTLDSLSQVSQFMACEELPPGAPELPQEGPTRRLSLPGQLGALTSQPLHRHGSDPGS
row,Structure (SMILES),"hERG current change (%, negative = inhibition) at 10uM [%]"
1,CN(CC(=O)NCc1ccc(F)cc1)S(=O)(=O)c1ccc2c(c1)c(=O)n(C)c(=O)n2C,-19
2,Cc1cc(C)cc(C(=O)NCC(=O)OCN2C(=O)c3ccccc3C2=O)c1,8.9
3,Cc1cc(C)cc(OCCn2nnc3ccccc32)c1,14.7
4,Cc1ccc(S(=O)(=O)NCC(=O)Nc2ccc3c(c2)OCO3)cc1,8.87
5,COCC(C)NC(=O)CCS(=O)(=O)c1nc(-c2ccc(OC)cc2)cc(C(F)(F)F)n1 (stereo not drawn),9.82
6,CCc1ccc(OC(=O)c2cccnc2)cc1,21.6
7,Fc1ccccc1OCCSc1nc2ccccc2o1,13.3
8,O=C(CSc1nnc(SCc2ccccc2)s1)N/N=C/c1ccc(C(=O)O)cc1,-28.2
9,Cc1ccc([N+](=O)[O-])cc1S(=O)(=O)Nc1ccc(C(=O)N2CCN(C(=O)c3ccco3)CC2)cc1,-10.4
10,O=C(NCCc1ccccc1)/C(=C\c1cccc([N+](=O)[O-])c1)NC(=O)c1ccco1,-78.6
11,COc1ccc(COc2cccnc2N)cc1,-15.4
12,O=S(=O)(NCCc1ccccc1F)c1cccc(S(=O)(=O)N2CCOCC2)c1,-18.4
13,O=C(Nc1ccc2ccccc2n1)c1ccccc1Cl,13
14,CN(C)CCC[C@]1(c2ccc(F)cc2)OCc2cc(C#N)ccc21,-33.3
15,CCOc1ccccc1NC(=O)c1ccc2[nH]c(C)c(C)c2c1,17.9
16,CC(=O)Nc1nc(CC(C)C)cc2c1c(=O)oc1ccccc12,9.76
17,Cc1ccc(OCC(=O)NCCCNC(=O)c2ccccn2)cc1C,8.06
18,CC1(C)Oc2ccc3ccc(=O)oc3c2/C(=C/Nc2ccccc2)C1=O,5.39
19,CSc1nc(-c2ccc(Cl)cc2Cl)[nH]c(=O)c1C#N,27.5
20,Cc1cc(C)n2c(Br)c(CSc3nc4ccccc4s3)nc2n1,-76.7
21,Cc1cccc(NC(=O)CSc2nc(COc3ccccc3)nc3ccccc23)c1C,13.5
22,COc1cc(C(=O)OC2CCCCC2=O)cc(OC)c1C (stereo not drawn),4.2

row,Structure (SMILES),"hERG current change (%, negative = inhibition) at 10uM [%]"
1,O=C(CSc1nc2c(c(=O)n1-c1ccccc1)SCC2)NCC1CCCO1 (stereo not drawn),30.3
2,O=C(CSCc1ccc(Cl)cc1)Nc1ccc(S(=O)(=O)N2CCOCC2)cc1,-25.6
3,CSc1ccc(C(=O)C2CCCN(C(=O)c3cccc(N4CCOCC4)c3)C2)cc1 (stereo not drawn),-30.7
4,CC(Sc1cccc[n+]1[O-])C(=O)Nc1ccc([N+](=O)[O-])cc1Cl (stereo not drawn),9.94
5,CCCCC(CCCC)=N/N=C/c1c(O)n(CC)c2cc(C3=NNC(=O)CC3)ccc12,5.04
6,Cc1cc(C)c2cc(CN(CCO)C(=O)Nc3ccc(Cl)cc3)c(=O)[nH]c2c1,-1.76
7,Cc1ccc2[nH]c3c(=O)n(CCN4CCOCC4)cnc3c2c1,-17.5
8,O=C1O/C(=C\c2ccccc2)c2ccccc21,-57.8
9,COc1ccc(C2C(C(=O)N3CCCCC3)CCC(=O)N2c2cc(OC)c(OC)c(OC)c2)cc1 (stereo not drawn),0.0986
10,COc1ccc(C2=NN(Cc3c(F)cccc3Cl)C(=O)CC2)cc1,-6.32
11,Cc1cccc(C)c1NC(=O)c1ccc(-n2cncn2)nc1,-7.98
12,CCOc1ccc(NS(=O)(=O)c2ccc(C(=O)NCc3cccnc3)cc2)cc1,-17.6
13,O=c1cc(CSc2ccccc2)nc(-c2ccncc2)[nH]1,15.3
14,COc1ccc(S(=O)(=O)c2c(O)c3ccc(C(=O)Nc4cccc(F)c4)cc3[nH]c2=O)cc1,9.3
15,CCOC(=O)c1ccc(NC(=O)CSc2nnc(CCc3ccc(C)o3)n2-c2ccccc2)cc1,-15.4
16,O=C1CN(C(=O)c2ccccc2F)c2ccccc2N1,15
17,CCCc1nnc(NC(=O)CCC(=O)N2CCCCCC2)s1,-0.608
18,CN1CCN(C(=O)c2cc(S(=O)(=O)Nc3ccccc3F)c(Cl)cc2Cl)CC1,-0.7
19,Cc1ccc(C(C)C)c(OCC(=O)N2CCN(c3ncccn3)CC2)c1,-44
20,Clc1ccc(-c2nnc3n2CCCCC3)cc1,-7.83
21,CCCCCCNC1=NCCS1,-10.3
22,COc1ccc(C2C(C(=O)N3CCC(C(N)=O)CC3)CC(=O)N2c2ccc(OC)cc2)cc1 (stereo not drawn),-1.19

row,Structure (SMILES),"hERG current change (%, negative = inhibition) at 10uM [%]"
1,O=C(Cn1cnc2c(oc3ccccc32)c1=O)NCC1CCCO1 (stereo not drawn),-7.69
2,COC(=O)C1=C(c2cccc(OC)c2OC)C[C@@H]2CC[C@H]1N2C(=O)NCc1ccc(C(F)(F)F)cc1,-17.5
3,COc1ccc(CCNC(=O)CSc2nc(O)c(C(C)C)c(=O)[nH]2)cc1OC,17.2
4,COc1cc(OC)c(NC(=O)Cn2cnc3sc(C)c(S(=O)(=O)N4CCOCC4)c3c2=O)cc1Cl,-4.48
5,COc1cc(-c2cc(C(=O)N(C)Cc3ccccc3)c3ccccc3n2)cc(OC)c1OC,-0.748
6,COc1ccc2nc(NC(=O)c3ccc(NS(=O)(=O)c4cccs4)cc3)sc2c1,0.0903
7,COc1ccc(/C=C2\SC(=O)N(CCn3cnnn3)C2=O)cc1,-10.4
8,CCC(CC)C(=O)Nc1nc(-c2ccc3c(c2)CCN3C(=O)C2CC2)c(C)s1,12.2
9,O=C(Nc1cccnc1)c1ccc(COc2ccccc2Cl)o1,-3.16
10,O=C(Nc1ccccc1-c1ccccc1)c1ccc(=O)[nH]n1,-1.11
11,CCOC(=O)[C@@H]1[C@H]2COc3ccc(Br)cc3[C@H]2N2C(=O)N(c3ccc(Cl)cc3)C(=O)[C@@]12C,15.8
12,Cl.Cn1cccc1CNCCc1ccc(F)cc1,-4.73
13,CSc1nc(N)nc(C2CC2)n1,8.14
14,Cc1ccccc1OCCn1c(=O)oc2ccccc21,-3.35
15,CC1(C)c2ccccc2N2CCC(=O)NC21/C=C/c1ccco1 (stereo not drawn),1.08
16,CC1CCN(S(=O)(=O)c2cccc(C(=O)NCc3cccs3)c2)CC1,-38.5
17,O=C(OCC(=O)N1CCN(C(=O)c2ccco2)CC1)c1ccccc1Cc1ccccc1,-56.3
18,Cc1ccc(-n2nnnc2SCC(=O)NC2CCCc3ccccc32)c(C)c1 (stereo not drawn),-7.69
19,O=C(NC1CCCCC1)c1cc2ccccc2cc1O,-12.7
20,CCCc1cc(=O)[nH]c(SCC(=O)Nc2nc3ccc(OCC)cc3s2)n1,22.8
21,O=S(NCc1ccccc1)C12CC3CC(CC(C3)C1)C2 (stereo not drawn),9.4
22,O=C(/C=C/c1ccccc1[N+](=O)[O-])NC1CCCC1,-13.2

row,Structure (SMILES),"hERG current change (%, negative = inhibition) at 10uM [%]"
1,OCC1(Cc2ccccc2)CCCN(Cc2c[nH]c3ccccc23)C1 (stereo not drawn),-27
2,O=C(Nc1cccc([N+](=O)[O-])c1)C1COc2ccccc2O1 (stereo not drawn),-86.3
3,CCC(CC)c1nnc(NC(=O)CS(=O)(=O)Cc2ccccc2)s1,7.12
4,COc1nn(-c2ccccc2)c(=O)c(Cl)c1Cl,15.7
5,Cc1ccc(C)c(-n2c(SCC(=O)NC(C(=O)O)C(C)C)nnc2-c2cccc(Cl)c2)c1 (stereo not drawn),44.3
6,CCCCCOc1ccc(/C=c2\sc3nc(=O)c(-c4ccccc4)nn3c2=O)cc1OC,1.89
7,CC(NC(=O)COc1ccc([N+](=O)[O-])cc1)c1ccccc1 (stereo not drawn),-34.5
8,Cc1cccc(NC(=O)C2CCN(S(=O)(=O)c3c(C)c(C)cc(C)c3C)CC2)n1,-1.12
9,COc1ccccc1NC(=O)CCc1nc(-c2cccs2)no1,-16.9
10,CC1CCCCN1CC(O)c1c[nH]c2ccccc12 (stereo not drawn),8.14
11,CCc1ccc(C(=O)C[n+]2cccc3cc(OC)ccc32)cc1.[Br-],-11.5
12,O=C(Cn1cnc2sc3c(c2c1=O)CCCC3)NCC(=O)Nc1c(F)cc(F)cc1Br,14.7
13,COc1ccc(CNc2cc(C)ccn2)c(O)c1,13.3
14,CC(=O)Nc1ccccc1C(=O)C(=O)Nc1cccc(C(=O)N2CCC3(CC2)OCCO3)c1,11.3
15,Cc1ccc(NC(=O)CCN2C(=O)C3CC=CCC3C2=O)cc1Cl (stereo not drawn),-10.9
16,C=CCN1C(=O)C2(OCCCO2)c2cccc(Cl)c21,5.1
17,COc1ccc(C(=O)N/N=C2\SCC(=O)N2Cc2ccc3c(c2)OCO3)c(OC)c1,3.31
18,O=C(NCCC(=O)N1CCC2(CC1)NCCc1[nH]cnc12)c1cccc(Br)c1,1.5
19,CCCC(=O)NC(=S)N1CCN(c2ccc([N+](=O)[O-])cc2)CC1,-20.7
20,COc1ccc(C2(c3cccc(O)c3OC)CCN(C(C)=O)CC2)cc1O,11
21,O=C(NCc1ccco1)c1ccc(Cn2c(=O)c3sccc3n(Cc3ccc(F)cc3)c2=O)cc1,13.6
